Measurements taken from PubChem BioAssay AID493208 (National Center for Advancing Translational Sciences (NCATS), 2011).
Hit rate of the full screen: of about 44,000 compounds, about 340 (0.77%) were called active. About 5% were inconclusive and are not listed. Calls follow the shape of the dose curve; as a rule, active = well fitted inhibition curve with a large enough effect; inconclusive = small, poorly fitted or top-dose-only effect; inactive = flat fitted curve, though single readings scatter. The list shows a part of the results.

Assay: Acumen qHTS Assay for Inhibitors of the mTORC1 Signaling Pathway in MEF (Tsc2-/-, p53-/-) Cells: Sytravon;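 also: plate controls were DMSO for no effect and rapamycin for full effect; nearly all actives have a fitted effect of over 50% in size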
Conditions: phospho-rpS6 immunofluorescence/PI, 24 h; series mostly up to 38.3 µM; activity change, negative = inhibition: at the top concentration
Method in brief: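 Immunofluorescence of rpS6 phosphorylation in Tsc2-/-, p53-/- MEFs after 24 h compound exposure, normalized to propidium iodide signal. Activity is expressed as % positive cells, thresholded with 7.5 nM rapamycin.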

Row | SMILES | activity change, negative = inhibition
1 | CCc1ccccc1NC(=O)CN1CCCN(Cc2cc(C)ccc2C)S1(=O)=O | inactive: -14.1%
2 | CCOC(=O)c1ccccc1NC(=O)CN1CCCN(Cc2cccc(Cl)c2)S1(=O)=O | inactive: 1.53%
3 | CCc1ccc(NC(=O)CCNS(=O)(=O)c2ccc3c(c2)oc(=O)n3C)cc1 | inactive: 0.305%
4 | Cc1ccc(-n2nc(C)c3c(C(=O)NCCc4ccccc4)cc(C)nc32)cc1 | inactive: 4.3%
5 | Cc1ccc(CNC(=O)c2ccc3c(c2)nc2n3CCOC2)cc1 | inactive: 0%
6 | CCN(CC)c1ccc(C(=O)NCc2ccc3c(c2)CCN3C(=O)c2ccc(F)cc2)cc1 | inactive: -7.02%
7 | COc1ccc(C(C)=O)cc1CSc1nc(NCCc2ccccc2)c2ccccc2n1 | inactive: -1.92%
8 | COc1ccc(C(=O)NNc2ncnc3c2cnn3-c2cccc(Cl)c2)cc1OC | inactive: -9.79%
9 | Cc1ccc(NC(=O)C2CCN(S(=O)(=O)c3c(C)noc3/C=C/c3cccs3)CC2)cc1F | inactive: 1.64%
10 | CCCS(=O)(=O)c1c(S(=O)(=O)CCC)c2cc(CC)ccn2c1C(=O)c1ccc(Cl)cc1 | inactive: -15%
11 | Cc1cccc(N(CC(=O)NCCSCc2cccc(Cl)c2)S(=O)(=O)c2ccccc2)c1C | inactive: -8.16%
12 | COc1ccc(C2NC(=O)N(C)C3=C2C(=O)N(c2cccc(C(=O)O)c2)C3)cc1 (configuration not stated) | inactive: 9.89%
13 | COc1ccc(Cl)cc1CNCCSc1nnnn1-c1ccccc1 | inactive: -23.1%
14 | COc1ccc(CNC(=O)CN2C(=O)CCn3nc(-c4ccccc4)cc32)c(OC)c1 | inactive: 4.98%
15 | COc1ccc(S(=O)(=O)Nc2cc3c(C(=O)OC(C)C)c(C)oc3c3ccccc23)cc1 | inactive: -14%
16 | CC(CCc1ccccc1)NC(=O)CSc1n[nH]c(-c2ccc(F)cc2)n1 (configuration not stated) | inactive: -0.45%
17 | COc1ccc(N2C(=O)Cc3cc(OC)c(OC)cc3C2c2ccc(F)cc2)cc1 (configuration not stated) | inactive: -16.1%
18 | Cc1cccc(Cn2cc(C(=O)Nc3cc(F)ccc3F)ccc2=O)c1 | inactive: -8.4%
19 | Cc1oc2ncn(C)c(=O)c2c1C(=O)NCc1ccc(Cl)cc1 | inactive: -5.41%
20 | COc1ccc(-c2nc(Cn3c(SCc4cccc(C(F)(F)F)c4)nc4cccnc43)c(C)o2)cc1OC | inactive: 1.46%
21 | CC1=C(C(=O)Nc2ccc(C)cc2C)C(c2ccc(O)cc2)n2nc(SCC(=O)c3ccc(C)cc3)nc2N1 (configuration not stated) | inactive: 2.01%
22 | Cn1c(Nc2ccc(Cl)cc2)cc(=O)n(C)c1=O | inactive: 5.12%
23 | COc1ccc(-c2nn3c(=O)cc(CN4CCN(S(=O)(=O)c5ccc(C)cc5)CC4)nc3s2)cc1 | inactive: -0.777%
24 | COc1ccc(OC)c(CNC(=O)C2CCCCN2S(=O)(=O)c2ccc(F)cc2)c1 (configuration not stated) | inactive: -9.35%

Row | SMILES | activity change, negative = inhibition
25 | COc1ccc(C(=O)Nc2ccc(S(=O)(=O)N(Cc3ccccc3)c3ccccc3)cc2)cc1 | inactive: -5.64%
26 | Cc1cc(OCC(O)CN2CCN(c3cccc(Cl)c3)CC2)ccc1Cl (configuration not stated) | inactive: -0.545%
27 | CC(C)Cc1nn2c(=O)cc(COC(=O)c3ccccc3NC(=O)C3CCCCC3)nc2s1 | inactive: 0%
28 | CCCc1nn2c(=O)cc(COC(=O)c3ccc(NC(=O)C4CCCCC4)cc3)nc2s1 | inactive: 8.5%
29 | CCc1nnc2c(Nc3ccc(N(CC)CC)cc3C)nc3ccccc3n12 | inactive: -2.47%
30 | Cc1ccc(S(=O)(=O)NCc2nc3cccnc3n2Cc2ccccc2Cl)c(C)c1 | inactive: 0.739%
31 | Cc1cc(S(=O)(=O)Nc2ccc(C(=O)O)cc2)c(C)c(S(=O)(=O)c2ccc(Cl)cc2)c1 | inactive: -1.54%
32 | COc1ccc(C)cc1NC(=O)c1cn(C)c(=O)c2cc(OC)c(OC)cc12 | inactive: 7.89%
33 | COc1cccc(NS(=O)(=O)c2ccc3c(c2)N(C)C(=O)CC(=O)N3C)c1 | inactive: -1.2%
34 | CCc1ccccc1NC(=O)N1CC(C)Sc2ccccc21 (configuration not stated) | inactive: -1.1%
35 | COc1ccccc1NC(=O)CN1C(=O)c2ccccc2Sc2ccc(C(=O)N3CCCC3)cc21 | inactive: 2.57%
36 | CC(=O)c1ccccc1OCC(O)Cn1c(CO)nc2ccccc21 (configuration not stated) | inactive: 4.92%
37 | CC(=O)c1ccc(NC(=O)c2nc(-c3ccccc3)n(-c3ccccc3)n2)cc1 | inactive: 3%
38 | O=C(Nc1ccc(Br)cc1F)N1CC=C(c2c[nH]c3ccccc23)CC1 | inactive: -0.0664%
39 | COc1cccc(N2CCN(C(=O)CCCCCn3c(=O)[nH]c4ccccc4c3=O)CC2)c1 | inactive: 1.58%
40 | CCc1ccc(CNC(=O)c2cc3c(=O)n(Cc4cccs4)ccc3nc2C)cc1 | inactive: -4.56%
41 | CCC(C(=O)NC1CCC(C)CC1)n1nc(C)c2sc3ccccc3c2c1=O (configuration not stated) | inactive: 0.126%
42 | CC(C)c1ccc(NC(=O)CSc2nc3ccccc3nc2Cc2ccccc2)cc1 | inactive: 11.7%
43 | COc1ccccc1CNC(=O)C1CCN(S(=O)(=O)c2ccc3c(c2)CCCN3C(C)=O)CC1 | inactive: -1.6%
44 | Cc1ccc(S(=O)(=O)N(C)Cc2nc(-c3ccccc3)oc2C)cc1 | inactive: 13.4%
45 | CCOc1ccccc1NC(=O)Cn1nnc(C(=O)NCc2ccc(F)cc2)c1N | inactive: -8.06%
46 | CN(C)CCNC(=O)C(=O)NCC(c1cccnc1)N1CCN(c2ccc(F)cc2)CC1 (configuration not stated) | inactive: -3.17%
47 | CCc1nc2nc(C)c(NS(=O)(=O)c3ccc(C)cc3)c(=O)n2[nH]1 | inactive: -17.5%
